Measured values published in PubChem BioAssay AID1347165 (National Center for Advancing Translational Sciences (NCATS), 2019).
Hit rate of the full screen: of about 220,000 compounds, about 5,700 (2.6%) were called active. The shares of active, inactive and inconclusive entries below differ from those in the screen. Calls follow the shape of the dose curve; as a rule, active = well fitted inhibition curve with a large enough effect; inconclusive = small, poorly fitted or top-dose-only effect; inactive = no such curve, though single readings can be large or run the other way. Where the call is inconclusive, the potency comes from a doubtful curve fit.

These compounds were tested against Lysine-specific demethylase 5B (Homo sapiens) (UniProt Q9UGL1) (assay: Primary screen for KDM5B Histone Demethylases FDH-coupled qHTS). Settings: FDH-coupled NADH fluorescence (FDH is formaldehyde dehydrogenase); activity change, negative = inhibition: at 57.7 µM (top of the series) unless noted.
UniProt Q9UGL1, sequence (Q9UGL1 whole entry, looked up, the tested form may be a part): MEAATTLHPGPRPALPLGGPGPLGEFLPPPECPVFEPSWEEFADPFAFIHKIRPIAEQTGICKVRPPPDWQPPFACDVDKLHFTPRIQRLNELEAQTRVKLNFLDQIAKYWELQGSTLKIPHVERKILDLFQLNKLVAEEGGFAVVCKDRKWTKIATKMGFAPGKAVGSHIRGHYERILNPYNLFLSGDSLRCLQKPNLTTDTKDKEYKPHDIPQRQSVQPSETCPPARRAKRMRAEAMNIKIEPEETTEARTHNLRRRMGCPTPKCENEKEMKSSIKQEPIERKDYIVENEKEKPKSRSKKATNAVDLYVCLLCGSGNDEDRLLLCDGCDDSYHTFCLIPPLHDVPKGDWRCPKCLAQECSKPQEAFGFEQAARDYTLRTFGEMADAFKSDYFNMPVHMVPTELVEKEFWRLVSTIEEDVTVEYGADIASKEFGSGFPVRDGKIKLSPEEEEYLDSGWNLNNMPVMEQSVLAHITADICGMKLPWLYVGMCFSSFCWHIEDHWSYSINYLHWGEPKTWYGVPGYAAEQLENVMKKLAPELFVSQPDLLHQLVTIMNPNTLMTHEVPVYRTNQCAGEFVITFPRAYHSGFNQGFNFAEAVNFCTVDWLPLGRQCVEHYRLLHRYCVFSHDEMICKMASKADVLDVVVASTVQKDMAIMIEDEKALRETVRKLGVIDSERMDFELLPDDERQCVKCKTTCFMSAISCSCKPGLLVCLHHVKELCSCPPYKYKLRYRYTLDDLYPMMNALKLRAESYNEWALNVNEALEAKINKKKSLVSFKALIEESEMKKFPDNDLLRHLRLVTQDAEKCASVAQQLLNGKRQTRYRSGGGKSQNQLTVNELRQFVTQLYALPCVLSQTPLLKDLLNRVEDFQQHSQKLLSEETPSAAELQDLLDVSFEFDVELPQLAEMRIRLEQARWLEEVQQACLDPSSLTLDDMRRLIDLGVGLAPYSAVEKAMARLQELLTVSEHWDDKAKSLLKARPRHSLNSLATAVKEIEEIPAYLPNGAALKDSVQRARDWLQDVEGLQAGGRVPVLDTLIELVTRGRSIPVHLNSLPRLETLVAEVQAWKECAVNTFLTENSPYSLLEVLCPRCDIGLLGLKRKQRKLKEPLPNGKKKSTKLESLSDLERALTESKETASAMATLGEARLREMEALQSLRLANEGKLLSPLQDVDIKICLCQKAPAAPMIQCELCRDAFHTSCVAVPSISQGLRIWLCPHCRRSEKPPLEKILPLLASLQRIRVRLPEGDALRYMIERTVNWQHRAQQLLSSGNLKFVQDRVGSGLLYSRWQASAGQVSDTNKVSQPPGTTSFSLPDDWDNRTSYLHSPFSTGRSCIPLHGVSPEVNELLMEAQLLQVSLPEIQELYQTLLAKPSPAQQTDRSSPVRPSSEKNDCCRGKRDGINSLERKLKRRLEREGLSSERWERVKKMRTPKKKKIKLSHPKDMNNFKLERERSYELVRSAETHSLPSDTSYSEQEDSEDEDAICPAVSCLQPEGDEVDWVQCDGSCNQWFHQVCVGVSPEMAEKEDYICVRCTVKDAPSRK
In short: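 Inhibition is measured as reduced NADH fluorescence generation from FDH coupling to formaldehyde release. Truncated KDM5BΔAP at 200 nM final acts on H3K4me3 peptide (12.5 µM in substrate mix) in pH 7.5 HEPES buffer with Tween-20, 30 min, room temperature.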
Also: nearly all actives have a fitted effect of over 70% in size.
For activity change, negative = inhibition in this document: 0% is about no effect.
Potency is read from the fitted curve at half-maximal effect; tags tell the direction and shape of the fitted curve.

| SMILES | activity change, negative = inhibition | Potency |
| --- | --- | --- |
| NC(=O)c1nc(CN2CCCC(C(=O)Nc3cccc(-n4cccn4)c3)C2)no1 (stereo not drawn) | inactive: -20.4% |  |
| COc1ccc(OC)c(/C=C(/C#N)C(=O)C(C)(C)C)c1 | inactive: -14.7% |  |
| CC(=O)NN1C(=O)c2ccccc2NC12CCCCC2 |  | inconclusive: 28.2 µM [inhibitor, partial curve, poor fit] |
| Cc1ccc(C)c(N2CCN(C(=O)Cn3cnc4nc5c(cc4c3=O)CCCC5)CC2)c1 |  | inconclusive: 25.1 µM [inhibitor, single point] |
| COc1ccc(CN2CC3(COCC2=O)CN(c2ccc(C(F)(F)F)cn2)C3)cc1F |  | inconclusive: 35.5 µM [inhibitor, partial curve] |
| Cc1nc(N(C)C)ncc1C(=O)NCc1ccc(Cl)cc1 |  | inconclusive: 31.6 µM [inhibitor, single point] |
| Cn1c(NCCN)nc2c1c(=O)n(Cc1ccccc1)c(=O)n2C |  | inconclusive: 15.8 µM [inhibitor, partial curve, poor fit] |
| Cc1cn2nc(C(=O)NCCc3cccs3)cc2c(N2CCSCC2)n1 |  | active: 14.1 µM |
| O=C1/C(=C\c2ccc(O)c(O)c2)SC(=S)N1Cc1ccccc1 |  | inconclusive: 28.2 µM [inhibitor, single point] |
| COc1ccc(OC)c(NC(=O)Cn2c(N3CCCCC3)nc(C)c(C)c2=O)c1 |  | inconclusive: 15.8 µM [inhibitor, partial curve] |
| Cc1oc(-c2ccccc2Cl)nc1CSc1nc2ccncc2[nH]1 | inactive: -10.2% |  |
| Cc1ccc(C)c(NC(=O)c2oc(=O)c3ccccc3c2-c2ccccc2)c1 |  | inconclusive: 25.1 µM [inhibitor, single point] |
| COc1ccc(S(=O)(=O)N2CCc3nc4cc(-c5ccccc5)[nH]n4c(=O)c3C2)cc1 |  | inconclusive: 28.2 µM [inhibitor, partial curve, poor fit] |
| CCCc1nc2ccccc2c(C(=O)OCC(=O)NC2CCCC2)c1CC |  | inconclusive: 17.8 µM [inhibitor, single point] |
| O=C(NCCc1ccc(Cl)cc1)c1cccs1 | inactive: 23.5% |  |
| COc1cc(C(=O)Nc2cc(C)c(O)c(-c3nc4ccccc4s3)c2)cc(OC)c1OC |  | inconclusive: 15.8 µM [inhibitor, partial curve, poor fit] |
| O=C(NCCO)c1ccc(-c2nnc(Nc3ccc(OC(F)(F)Cl)cc3)c3ccccc23)cc1 |  | inconclusive: 44.7 µM [inhibitor, single point] |
| c1coc(-c2ccnc3ncnn23)c1 |  | active: 28.2 µM |
| COc1ccc(-c2noc([C@@H]3C[C@@H](O)CN3Cc3cccs3)n2)cc1 |  | inconclusive: 28.2 µM [inhibitor, single point] |
| O=C1CCN(C(=O)c2ccco2)CCCC(c2nc(-c3ccccc3)no2)CCN1 (stereo not drawn) | inactive: -32.8% |  |
| COc1ccc(C(=O)Nc2ccc(-c3nc4ccccc4s3)c(Cl)c2)cc1Cl |  | inconclusive: 10 µM [inhibitor, partial curve, poor fit] |
| COc1cccc(CN2CCc3ccccc3C2)c1OC |  | inconclusive: 22.4 µM [inhibitor, partial curve, poor fit] |

| SMILES | activity change, negative = inhibition | Potency |
| --- | --- | --- |
| COc1cccc(C(=O)NC2CCCN(c3cc(-c4ccccc4)[nH]n3)C2)c1OC (stereo not drawn) |  | inconclusive: 35.5 µM [inhibitor, partial curve, poor fit] |
| COc1cccc(C(=O)Nc2nc(-c3nnn(-c4cccc(Cl)c4C)c3C)ns2)c1 |  | inconclusive: 35.5 µM [inhibitor, single point] |
| COc1ccc(-c2c(C(F)(F)F)oc3cc(OCC#N)ccc3c2=O)cc1 | inactive: -13.9% |  |
| COc1ccccc1-c1ccnc(N[C@H]2CO[C@H]3[C@@H]2OC[C@@H]3NC(=O)c2ccccc2)n1 |  | active: 35.5 µM |
| COC(=O)c1cc(-c2ccc(OC)cc2F)nc2nc(SC)[nH]c(=O)c12 |  | inconclusive: 20 µM [inhibitor, partial curve, poor fit] |
| COc1ccc(NC(=O)Cn2c(=O)n(-c3ccc(OC)cc3)c(=O)c3sc4ccccc4c32)cc1 |  | inconclusive: 1.58 µM [inhibitor, partial curve, poor fit] |
| COc1ccc(C(=O)NCc2nnc3ccc(-c4ccccc4)nn23)c(C)c1 |  | inconclusive: 28.2 µM [inhibitor, single point] |
| Cc1ccccc1CN1CCc2c(n(Cc3ccccc3)n(-c3ccccc3)c2=O)C1 |  | inconclusive: 35.5 µM [inhibitor, single point] |
| COc1ccc(CNc2ncnc3c2c(-c2ccccc2)cn3-c2ccc(C)c(Cl)c2)cc1 |  | inconclusive: 28.2 µM [inhibitor, partial curve, poor fit] |
| COc1cc(OC)c(C(=O)N2CCC3(CC2)[C@H](O)C[C@@H]3OC)cc1OC | inactive: -22.1% |  |
| COc1ccc(C(=O)C(C)Cl)c(OC)c1 (stereo not drawn) | inactive: 14.5% |  |
| COc1ccc2ncc3c(-c4ccc(C)c(C)c4)nn(CC(=O)Nc4ccccc4)c3c2c1 |  | inconclusive: 22.4 µM [inhibitor, partial curve, poor fit] |
| Cc1cc(SCC(=O)Nc2ccc(F)cc2F)nc(=O)[nH]1 |  | inconclusive: 0.794 µM [inhibitor, partial curve, poor fit] |
| CCOc1ccc(N(Cc2cc3cc(OC)ccc3[nH]c2=O)S(C)(=O)=O)cc1 |  | inconclusive: 39.8 µM [inhibitor, single point] |
| N#Cc1cnc2ccccc2c1N1CCCCCC1 |  | inconclusive: 28.2 µM [inhibitor, single point] |
| COCC(=O)N(C1CCOCC1)C1CCN(C(=O)c2ccc(F)cc2)CC1 | inactive: 34.3% |  |
| Nc1cccc(-c2ccc(Cl)c(Cl)c2)c1 |  | inconclusive: 39.8 µM [inhibitor, single point] |
| Cc1ccc(CC(=O)NCc2nc(-c3ccccc3)no2)cc1 | inactive: -7.29% |  |
| O=C(NCCc1ccccc1Cl)c1cc2ccccn2n1 |  | inconclusive: 11.2 µM [inhibitor, partial curve, poor fit] |
| COc1ccc(Nc2nccc3c(=O)cc(N4CCOCC4)oc23)cn1 |  | active: 31.6 µM |
| CC(NNC(=O)C(O)(c1ccccc1)c1ccccc1)c1ccccc1 (stereo not drawn) | inactive: 3.26% |  |
